Test results: PubChem BioAssay AID2147 (National Center for Advancing Translational Sciences (NCATS), 2009)
Several values for one entry are separate records, joined by “and”; a condition that tells them apart may be missing. Equal entries are not always repeated. Among all 230,000 compounds or so, about 3,600 (1.6%) were called active. Inconclusive means that the source gave no clear call. Such entries were picked first, then a sample of the others. The call rests on the fitted dose curve; in most records, active means well fitted inhibition curve with a large enough effect (not every such curve was filed as active); inconclusive means small, poorly fitted or top-dose-only effect, or another doubt; inactive means no such curve, though single readings can be large or run the other way. A potency beside an inconclusive call is a rough fit, not a confirmed value.

These molecules were tested against Lysine-specific demethylase 4E (Homo sapiens) (UniProt B2RXH2) (assay: qHTS Assay for Inhibitors of Human Jumonji Domain Containing 2E (JMJD2E)). Conditions: JMJD2E catalytic domain, FDH-coupled NADH fluorescence (FDH is formaldehyde dehydrogenase); series mostly up to 57.1 µM; activity change, negative = inhibition: at the top concentration.
Chain of UniProt B2RXH2 (B2RXH2 whole entry, looked up, the tested form may be a part): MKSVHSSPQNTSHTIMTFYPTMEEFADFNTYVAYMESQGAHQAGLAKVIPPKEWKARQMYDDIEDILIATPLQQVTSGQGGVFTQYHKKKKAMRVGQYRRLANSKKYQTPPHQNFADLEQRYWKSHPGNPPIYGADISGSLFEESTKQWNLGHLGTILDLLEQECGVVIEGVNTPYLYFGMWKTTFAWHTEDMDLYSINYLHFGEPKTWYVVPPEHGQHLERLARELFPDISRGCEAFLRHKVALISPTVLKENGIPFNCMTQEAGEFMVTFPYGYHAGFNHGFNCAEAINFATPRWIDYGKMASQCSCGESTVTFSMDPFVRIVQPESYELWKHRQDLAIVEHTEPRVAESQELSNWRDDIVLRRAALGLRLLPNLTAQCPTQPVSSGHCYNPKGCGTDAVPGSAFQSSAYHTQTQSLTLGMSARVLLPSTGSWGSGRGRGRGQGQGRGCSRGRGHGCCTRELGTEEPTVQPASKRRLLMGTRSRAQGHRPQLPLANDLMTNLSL
Further: nearly all actives have a fitted effect of over 50% in size.
Potency means the concentration at half of the fitted maximal effect; tags describe the fitted curve by direction and shape.
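Wherever activity change, negative = inhibition is given: 0% = wells with enzyme and -100% = buffer wells without enzyme.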

SMILES | Potency | activity change, negative = inhibition
Cc1c(-c2ccccc2)sc(N)c1C(=O)N1CCOCC1 | inconclusive: 31.6 µM [inhibitor, single point] | –
CCOc1ccc2nc3cc(N)ccc3c(N)c2c1 | inconclusive: 20 µM [inhibitor, partial curve] | –
CC1(C)CC(=O)C2=C(C1)N(CCN1CCOCC1)C1=C(C(=O)CC(C)(C)C1)C2c1cccc(Cl)c1 | inconclusive: 31.6 µM [inhibitor, partial curve] | –
FC(F)(F)c1cc(-c2cccs2)nc2nc(N3CCOCC3)sc12 | inconclusive: 31.6 µM [inhibitor, partial curve] | –
Cc1ccc(C)c(Cc2c(C)nc3c(C(=O)N4CCOCC4)cnn3c2C)c1 | inconclusive: 28.2 µM [inhibitor, partial curve] | –
CC(=O)c1cccc(N2Cc3ccccc3C2=NC(=O)CCl)c1 | – | inactive: -11.4%
O=C(O)c1ccc(N2CCCCC2)cc1O | – | inactive: 1.13%
N#Cc1nc(-c2ccc(OCc3ccccc3)cc2)oc1NCCCn1ccnc1 | inconclusive: 25.1 µM [inhibitor, partial curve] | –
O=c1c(O)c(-c2ccc(O)c(O)c2)oc2ccccc12 | active: 10 µM | –
Nc1cc(C(=O)O)ccc1Sc1ccccc1C(=O)O | inconclusive: 35.5 µM [inhibitor, single point] | –
CC(C)CNCC(=O)N1c2ccccc2Sc2ccccc21 | – | inactive: -3.63%
N#Cc1ccc(CSCC(=O)NN=C2CCCC2)cc1 | – | inactive: 11.8%
COc1ccc(CCNC(=O)CCCNC(=O)Cn2cnc3sc(C)c(C)c3c2=O)cc1OC | inconclusive: 39.8 µM [inhibitor, single point] | –
CSc1ccc2c(c1)N(CCC1CCCCN1C)c1ccccc1S2 (stereo unspecified) | inactive and inconclusive: 39.8 µM [inhibitor, single point] | –
Cc1ccc(NC2=NC(c3ccc(F)cc3)n3c(nc(C)cc3=O)N2)c(C)c1 (stereo unspecified) | inconclusive: 39.8 µM [inhibitor, single point] | –
CCOC(=O)CSC1=C(C#N)C(c2ccc(C)cc2)C2=C(CCCC2=O)N1 (stereo unspecified) | inconclusive: 39.8 µM [inhibitor, single point] | –
Cc1ccc(/C=C/C(=O)NCc2cccs2)cc1 | – | inactive: 8.46%
CCOC(=O)N1CCN(C(=O)c2c(O)c3cccc4c3n(c2=O)CC4)CC1 | – | inactive: 2.4%
O=C(O)c1ccc(-c2ccccn2)s1 | inconclusive: 28.2 µM [inhibitor, single point] | –
N/C(=N\OC(=O)c1ccccc1Cl)c1cccnc1 | – | inactive: -0.107%
O=C(O)c1cccc2c(/C=N/Nc3ccccn3)c[nH]c12 | inconclusive: 28.2 µM [inhibitor, single point] | –
Oc1ccc(N=Nc2ccc(Br)cc2)c(O)c1 | – | inactive: 16.4%
COc1ccc(C2CC(O)(c3ccccc3)Oc3cc(OC)c(OC)c(OC)c32)cc1 (stereo unspecified) | – | inactive: -10.1%
COc1ccccc1NC(=O)Nc1ccc(Cl)c(S(=O)(=O)Nc2ccccc2OC)c1 | – | inactive: -3.62%
O=C(c1ccc(S(=O)(=O)N2CCc3ccccc3C2)cc1)N1CCCCC1 | – | inactive: -4.84%
CC(C)(Sc1ccc(CCN(CCCCC2CCCCC2)C(=O)NC2CCCCC2)cc1)C(=O)O | inactive | –

SMILES | Potency | activity change, negative = inhibition
CCC(C)(C)C1CCc2c(sc(NC(=O)c3cccs3)c2C(N)=O)C1 (stereo unspecified) | inconclusive: 3.16 µM [inhibitor, partial curve] | –
Cc1ccc(NC(=O)Nc2nnc(Cc3ccc([N+](=O)[O-])cc3)s2)cc1C | – | inactive: -6.4%
CCOC(=O)c1c(N)sc2c1CCC(C)C2 (stereo unspecified) | inconclusive: 22.4 µM [inhibitor, single point] | –
COc1cc(/C=N/n2nnnc2N)cc(OC)c1OC | inconclusive: 31.6 µM [inhibitor, partial curve] | –
CCc1cc2c(N3CCCCC3)ncnc2s1 | inconclusive: 39.8 µM [inhibitor, single point] | –
Cc1cc(C)c2c(N)c(S(=O)(=O)Cc3ccccc3)sc2n1 | inconclusive: 39.8 µM [inhibitor, single point] | –
COc1ccc(C2NC(=S)NC(C)=C2C(=O)Nc2ccccn2)cc1 (stereo unspecified) | – | inactive: -2.35%
CCOC(=O)c1oc2ccccc2c1CSc1nnnn1-c1ccccc1 | – | inactive: -1.77%
CC(C)CC(=O)Nc1ccc2oc(-c3cccnc3)nc2c1 | inconclusive: 31.6 µM [inhibitor, partial curve] | –
S=C(c1ccc2c(c1)OCO2)N1CCCCCC1 | – | inactive: 0.379%
c1ccc2c(c1)Nc1nccnc1S2 | inconclusive: 39.8 µM [inhibitor, single point] | –
Cc1c(/C=C/C(=O)c2ccc(Cl)s2)cnn1C | inconclusive: 28.2 µM [inhibitor, single point] | –
CCCn1c(=O)[nH]c(=O)c2c(C(=O)OCC)cc(-c3cccs3)nc21 | inconclusive: 15.8 µM [inhibitor, partial curve] | –
Cc1[nH]c(=S)c(C#N)c(-c2ccco2)c1C(=O)N(C)C | inconclusive: 28.2 µM [inhibitor, single point] | –
Cc1ccccc1C1=NC(c2ccc(F)cc2F)ON1 (stereo unspecified) | inconclusive: 28.2 µM [inhibitor, single point] | –
Cc1cccc(-n2cc(C(=O)O)c(=O)cc2C)c1 | – | inactive: -2.63%
Cc1ccc(CC2C(=O)N(c3nc(C)cc(C)n3)C(=O)C2C)cc1 (stereo unspecified) | – | inactive: 4.33%
COc1ccc(-c2nc(N)n(C(=O)c3ccco3)n2)cc1 | inconclusive: 35.5 µM [inhibitor, single point] | –
CCOc1ccccc1N1CCN(Cc2ccco2)CC1 | – | inactive: -0.893%
O=C(CCc1ccccc1)Nc1cccc(-c2nnc(-c3ccco3)o2)c1 | inconclusive: 17.8 µM [inhibitor, partial curve] | –
O=C(Nc1ccc(C(=O)O)cc1)/C(=C\c1ccc2c(c1)OCO2)NC(=O)c1ccco1 | inconclusive: 12.6 µM [inhibitor, partial curve] | –
CCOC(=O)C(N)CSC1CC(=O)N(c2ccc(C(=O)OC)cc2)C1=O (stereo unspecified) | – | inactive: 5.27%
COc1cccc(NC(=O)c2ncc(Cl)c(Cl)c2Cl)c1 | inconclusive: 39.8 µM [inhibitor, single point] | –
O=C(Nc1ccc(Cl)c(Cl)c1)C1=Cc2ccccc2OC1 | inconclusive: 28.2 µM [inhibitor, single point] | –
Cc1ccc(-c2nc3c(=O)n(-c4ccccc4)c4c(c(=O)n(C)c(=O)n4C)c3o2)cc1 | inconclusive: 14.1 µM [inhibitor, partial curve] | –
Cc1ccc2cc3c(nc2c1)N(c1ccccc1)CC3 | inconclusive: 7.94 µM [inhibitor, full curve] | –

SMILES | Potency | activity change, negative = inhibition
CCOc1ccc(CC2NCCc3cc(OCC)c(OCC)cc32)cc1OCC (stereo unspecified) | active: 35.5 µM | –
Cc1ccccc1CN(c1ccc(C(=O)Nc2ccccc2C(=O)NCc2ccco2)cc1)S(C)(=O)=O | – | inactive: -26.7%
CCC1CCc2c(sc(NC(=O)c3ccoc3C)c2C(N)=O)C1 (stereo unspecified) | inconclusive: 31.6 µM [inhibitor, single point] | –
CCN(CC)c1ccc(/C=N/Nc2nc3ccccc3[nH]2)cc1 | inconclusive: 25.1 µM [inhibitor, partial curve] | –
COc1ccc2nc3sc(C(=O)NCc4cccs4)c(N)c3cc2c1 | inconclusive: 35.5 µM [inhibitor, single point] | –
Cc1ccc(C)n1C(Cc1ccccc1)C(=O)O (stereo unspecified) | inconclusive: 25.1 µM [inhibitor, single point] | –
Cc1ccc(NS(=O)(=O)c2cc(NC(=O)c3ccc4c(c3)NC(=O)CS4)ccc2C)c(C)c1 | inconclusive: 35.5 µM [inhibitor, single point] | –
COC(=O)n1c(=O)oc2ccccc21 | – | inactive: -4.33%
Cc1nn2c(N)c(C#N)cnc2c1-c1ccc(Cl)cc1 | inconclusive: 7.08 µM [inhibitor, single point] | –
COc1ccc(OC)c(-c2cc(C(=O)NCc3ccco3)no2)c1 | inconclusive: 35.5 µM [inhibitor, single point] | –
Cc1cccc(C2c3[nH]c4ccccc4c3CCN2C(=O)c2ocnc2C)n1 (stereo unspecified) | active: 22.4 µM | –
COc1ccc(-n2c(C)c3c(OC)cccc(=O)c3c2C)cc1 | – | inactive: -3.24%
COc1ccc(-c2cc(=O)c3c(OC(C)=O)cc(OC(C)=O)cc3o2)cc1 | inconclusive: 28.2 µM [inhibitor, partial curve] | –
Cn1c(C(=O)NCC2CCCO2)cc2c(=O)[nH]c3ccccc3c21 (stereo unspecified) | inconclusive: 35.5 µM [inhibitor, single point] | –
COc1ccc2nc(NC(=O)C3CCCN(S(=O)(=O)c4cccc5nonc45)C3)sc2c1 (stereo unspecified) | – | inactive: -0.582%
O=C(Cn1cc(C(=O)c2ccco2)c2ccccc21)Nc1ccccc1 | inconclusive: 39.8 µM [inhibitor, single point] | –
COc1ccc2ccc(=O)oc2c1CC(O)C(C)(C)O (stereo unspecified) | inconclusive: 28.2 µM [inhibitor, partial curve] | –
CC1CCc2nc(NC(=O)Cc3cccs3)sc2C1 (stereo unspecified) | inconclusive: 0.562 µM [inhibitor, full curve] | –
COCCN1Cc2cccc(C(=O)Nc3ccc(-c4nc5ccccc5[nH]4)cc3)c2C1=O | inconclusive: 25.1 µM [inhibitor, single point] | –
O=C(O)c1ccc(-n2cccc2)cc1O | inconclusive: 28.2 µM [inhibitor, partial curve] | –
O=C(CSc1ccc(Cl)cc1Cl)N1CCC(c2nc3ccccc3s2)CC1 | – | inactive: -0.877%
O=C(N/N=C1\C(=O)c2cccc3cccc1c23)c1ccc(O)cc1 | – | inactive: 17.1%
CC1CCCN(C(=S)SCC(=O)c2cc(Br)cc(Br)c2O)C1 (stereo unspecified) | inconclusive: 35.5 µM [inhibitor, single point] | –
Cc1cc(=O)n(CCC(=O)O)c2ccccc12 | inconclusive: 25.1 µM [inhibitor, single point] | –
